In all, about 310,000 compounds went through this assay and about 14,000 (4.5%) showed an effect of 50% or more. Effects have a minus sign here. The list shows a part of the results.
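Note: peak tail current of the secondary pulse compared with the same well before compound.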

The target in the assay is human ether-à-go-go-related gene (hERG) potassium channel (human, UniProt Q12809). Nature of the assay: primary screen, population patch clamp on CHO cells stably expressing hERG.
human ether-à-go-go-related gene (hERG) potassium channel, sequence (Q12809 whole entry, looked up): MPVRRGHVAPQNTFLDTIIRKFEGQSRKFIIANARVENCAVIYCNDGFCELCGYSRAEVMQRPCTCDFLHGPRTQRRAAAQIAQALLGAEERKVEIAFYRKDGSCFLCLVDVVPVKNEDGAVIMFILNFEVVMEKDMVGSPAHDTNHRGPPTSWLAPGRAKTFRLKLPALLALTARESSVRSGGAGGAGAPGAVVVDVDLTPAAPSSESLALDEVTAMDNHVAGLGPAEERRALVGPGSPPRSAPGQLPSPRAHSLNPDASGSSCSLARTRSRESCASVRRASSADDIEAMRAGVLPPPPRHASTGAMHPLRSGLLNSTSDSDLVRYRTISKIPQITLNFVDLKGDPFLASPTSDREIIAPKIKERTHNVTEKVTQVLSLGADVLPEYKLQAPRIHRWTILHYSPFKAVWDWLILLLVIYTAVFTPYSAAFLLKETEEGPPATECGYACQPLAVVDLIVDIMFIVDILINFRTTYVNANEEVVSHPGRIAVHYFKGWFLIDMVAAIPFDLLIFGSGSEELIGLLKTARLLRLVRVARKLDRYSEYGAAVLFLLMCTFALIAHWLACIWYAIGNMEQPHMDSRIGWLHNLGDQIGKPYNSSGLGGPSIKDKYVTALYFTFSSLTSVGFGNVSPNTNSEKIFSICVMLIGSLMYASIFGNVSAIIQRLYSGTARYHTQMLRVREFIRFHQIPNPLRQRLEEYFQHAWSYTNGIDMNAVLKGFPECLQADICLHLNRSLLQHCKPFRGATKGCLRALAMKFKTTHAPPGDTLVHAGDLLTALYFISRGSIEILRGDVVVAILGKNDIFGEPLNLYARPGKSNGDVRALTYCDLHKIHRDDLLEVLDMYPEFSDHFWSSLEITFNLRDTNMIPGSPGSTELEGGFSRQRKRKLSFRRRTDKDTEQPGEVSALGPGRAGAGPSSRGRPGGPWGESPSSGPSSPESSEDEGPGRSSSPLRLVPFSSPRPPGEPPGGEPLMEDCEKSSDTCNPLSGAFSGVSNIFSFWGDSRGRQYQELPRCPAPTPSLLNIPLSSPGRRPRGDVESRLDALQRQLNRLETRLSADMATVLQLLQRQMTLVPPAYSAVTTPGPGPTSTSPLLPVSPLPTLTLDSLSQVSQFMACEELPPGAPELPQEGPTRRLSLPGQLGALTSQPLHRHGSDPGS
As to `CC(C)(C)NC(=O)c1ccncc1`, the “hERG current change (%, negative = inhibition) at 10uM” value amounted to 7.71%.
With `CCc1ncc(C)nc1CC` the figure was 12.5%; with `C/C(=C\C(=O)c1ccccc1)Nc1ccc(N2CCOCC2)cc1`, 14.7%; with `O=S(=O)(c1ccc(OCc2ccc(Br)cc2)cc1)N1CCOCC1`, -1.14%.
With `O=C(NCCc1ccc(Cl)cc1)C1CCC(=O)N1Cc1ccc(F)cc1` (centres unmarked) the figure was -11.8%; with `OCC1(Cc2ccc(F)cc2F)CCCN(Cc2ccc(Cl)cc2)C1` (centres unmarked), -74.6%; with `COc1ccc(C[C@H]2CN3C(=NC[C@@H]3Cc3ccccc3)N2CCNC(=O)c2ccc(C)c(Br)c2)cc1`, -74%.
Under `COc1ccc(S(=O)(=O)N2CCCC2CNC(=O)C(=O)NC2CCCCCC2)cc1` (centres unmarked) stands -45.6%; under `COc1ccc(C(O)P(=O)(OCC(C)C)OCC(C)C)c(OC)c1` (centres unmarked), 25.7%; under `COC(=O)CN1C(=S)N(c2ccccc2)C(=O)C1CC(=O)Nc1ccc(Cl)cc1` (centres unmarked), 9.22%.
On to `CCOc1ccc(-c2nc(CSCC(=O)NCC3CCCO3)c(C)o2)cc1` (centres unmarked), for which the “hERG current change (%, negative = inhibition) at 10uM” value is listed as -1.16%.
Under `COc1cccc(CCNCc2c(F)cccc2F)c1.O=C(O)C(=O)O` stands -15.1%; under `O=c1onc(-c2ccc(Cl)cc2)n1Cc1ccc(F)cc1`, -15.8%.
With `CCOC(=O)C1=C(C)N(CCCC(=O)O)C(=O)NC1C(CC)CC` (centres unmarked) the figure was 13%.
Under `CCn1c(SCC(=O)Nc2nc(-c3ccccc3)cs2)nnc1-c1ccccc1O` stands -20.8%; under `Cc1cccc(C)c1OCC(=O)Nn1c(=O)[nH]c2ccccc2c1=O`, 7.16%; under `O=c1c2ccccc2n2c(-c3cccc(F)c3)nnc2n1Cc1ccccc1`, 13.3%.
`Cc1c(CNC2CCC(C)CC2)c(C(=O)O)c(C)n1Cc1ccccc1` (centres unmarked): the “hERG current change (%, negative = inhibition) at 10uM” value is recorded as -5.2%.
With `COc1cc(C(=O)NC(=S)Nc2ccc(Cl)cn2)cc(OC)c1OC` the figure was -0.746%; with `CCCCCCOc1ccc(OCC(O)CN2C(=O)NC(C)(C)C2=O)cc1` (centres unmarked), 12.1%; with `O=C(NNC(=O)c1ccc(Cl)c(Cl)c1)c1cccnc1`, 0.538%.
Under `CCOC(=O)c1csc(NC(=O)c2cc(OC)c(OC)c(OC)c2)n1` stands -47.8%; under `O=c1[nH]ncc2c3ccccc3n(Cc3ccccc3F)c12`, 10.1%.
Under `N#C/C(=C\c1ccc(Sc2ccccc2)o1)c1nc2ccccc2[nH]1` stands 0.91%.
As for `O=C(COC(=O)/C=C/c1cccc(Cl)c1)NCCc1ccc(Cl)cc1Cl`, the “hERG current change (%, negative = inhibition) at 10uM” value came to 10.3%.
With `COc1ccc(OC)c(CN2CCC(C(=O)N3CCN(c4ccccc4F)CC3)CC2)c1.O=C(O)C(=O)O` the figure was -65.3%.
Under `CCc1ccc(NC(=O)C2=CC(c3ccc(OC)cc3)=NS(=O)(=O)N2C)cc1` stands -15.2%; under `COc1ccc(Br)cc1C1Nc2ccccc2C(=O)N1NC(=O)c1ccncc1` (centres unmarked), -21%.
Under `C=CCN(c1ccccc1)S(=O)(=O)c1ccc2c(c1)NC(=O)C(C)S2` (centres unmarked) stands 5.73%; under `Cc1ccccc1N1CCN(C(=O)C2CCCCC2)CC1`, 0.863%; under `CCOc1ccc(OCCOc2ccc(/C=C/C(=O)O)cc2OCC)cc1`, 6.53%.
For the compound `COc1ccc(S(=O)(=O)N2CCOCC2)cc1NC(=O)c1cc2c(s1)CCCC2`, the “hERG current change (%, negative = inhibition) at 10uM” value is on record as -11.4%.
With `COc1cc(NC2c3ccccc3C(=O)N2Cc2ccccc2)cc(OC)c1OC` (centres unmarked), the “hERG current change (%, negative = inhibition) at 10uM” value is -1.06%.
For the compound `Cc1cccc(OCC(=O)NCCN2CCOCC2)c1`, the “hERG current change (%, negative = inhibition) at 10uM” value is listed as -0.244%.
Under `Cn1c(Cc2ccccc2)nnc1SCc1nc2ccccc2c(=O)[nH]1` stands -1.69%.
For `CSCC[C@H](NC(=O)C1CCN(S(=O)(=O)c2ccccc2)CC1)C(=O)NC1CC1`, the “hERG current change (%, negative = inhibition) at 10uM” value was 18.1%.
Regarding `O=C(CSc1nc(-c2ccco2)cc(C(F)(F)F)n1)N1CCN(c2ccc(Cl)cc2)CC1`, the “hERG current change (%, negative = inhibition) at 10uM” value was determined as 6.11%.
As to `O=C(COc1ccc(Br)cc1Br)NNC(=O)c1cccs1`, the “hERG current change (%, negative = inhibition) at 10uM” value is given as 12%.
Under `Cc1ccc(N)c2c1OCCC2=O` stands 20.4%; under `CC1(C)CC(=O)C2=C(C1)NC(=O)CC2c1cc(F)ccc1F` (centres unmarked), -21.6%; under `COc1ccc([N+](=O)[O-])cc1NC(=O)c1cccs1`, 4.41%.
Under `Cc1ccc(NC(=O)C(=O)NCCCN2CCCC2=O)cc1` stands -7.59%; under `CC(NC(=O)c1cc2cc(F)ccc2[nH]1)c1ccccc1` (centres unmarked), 3.52%; under `COc1ccc(NS(=O)(=O)c2cccc(C(=O)NNC(=O)NCCCl)c2)cc1`, 20.3%.
With `Cc1ccc(C)c(NC(=O)CSc2c(C)n[nH]c2C)c1`, the “hERG current change (%, negative = inhibition) at 10uM” value is reported as 18.6%.
As for `OCc1cc(Br)ccc1OCc1nc2ccccc2s1`, the “hERG current change (%, negative = inhibition) at 10uM” value was determined as 24.7%.
With `O=C(COC(=O)c1ccc(S(=O)(=O)NCc2ccco2)cc1)NCC1CCCCC1` the figure was -2.43%; with `Cc1cc(=O)oc(C)c1C(=O)NCc1ccc(F)cc1`, -15.9%.
Under `Cc1ccc(Oc2c(C(N)=O)cc([N+](=O)[O-])cc2[N+](=O)[O-])cc1` stands -15.4%; under `COc1ccccc1NC(=O)NNC(=O)CCc1ccccc1`, 1.12%; under `O=C(c1cc(=O)[nH]c2ccccc12)N(Cc1nnc(-c2ccccc2Cl)o1)C1CC1`, -19.5%.
With `CCc1c(C)nn(C(=O)/C(C#N)=C\N(C)C)c1C` the figure was -1.67%.
Take `COc1ccc(CNC(=O)COC(=O)c2c[nH]c(=O)[nH]c2=O)cc1OC`: the “hERG current change (%, negative = inhibition) at 10uM” value is 4.82%.
With `COc1ccc(C(CC(=O)O)N2Cc3ccccc3C2=O)cc1` (centres unmarked) the figure was 14.4%; with `COc1ccc(N2CCN(C(=O)CN3C(=O)NC(C)(c4ccc5ccccc5c4)C3=O)CC2)cc1` (centres unmarked), -17.6%.
Under `O=C(/C=C/Sc1ccc(C(F)(F)F)cn1)c1ccccc1` stands 17.3%.
With `COc1cc(/C=C2/SC(=NCc3ccccc3)N(Cc3ccccc3)C2=O)ccc1O` the figure was 13.1%.
`CN(C(=O)c1ccc(Oc2ccc([N+](=O)[O-])cc2)cc1)C1CCCCC1`: the “hERG current change (%, negative = inhibition) at 10uM” value is given as -24.5%.
In the case of `COc1ccc(NC(C#N)c2ccc(OC)cc2)cc1` (centres unmarked), the “hERG current change (%, negative = inhibition) at 10uM” value is listed as 26.7%.
With `CC(=O)Nc1cccc(NC(=O)c2cc(Cl)ccc2Cl)c1` the figure was 4.28%; with `COC(=O)c1[nH]c2ccccc2c1NC(=O)c1c(F)cccc1F`, 17.1%.
Under `CCC(=O)c1c[nH]c(C(=O)NCCc2ccccn2)c1` stands 3.31%; under `CCC(C)NC(=O)c1cc(-c2ccc3c(c2)OCO3)on1` (centres unmarked), -8.08%.
With `O=C(/C=C/c1cccc(Br)c1)Nc1nn[nH]n1` the figure was 10.8%; with `Cc1c(/C=N/NC(=O)CNc2ccccc2)c2ccccn2c1C(=O)c1ccncc1`, 0.0344%; with `Cc1nc2ccc(Br)cc2c(-c2ccccc2)c1C(=O)O`, 19.8%.
Regarding `O=C(OCc1ccc([N+](=O)[O-])cc1)C1CCN(S(=O)(=O)c2ccccc2)CC1`, the “hERG current change (%, negative = inhibition) at 10uM” value is on record as -37.3%.
Under `CCOC(=O)c1[nH]ncc1CN1CCCC(C(=O)c2cccc3ccccc23)C1` (centres unmarked) stands -45.8%; under `CNC(=S)Nc1ccccc1-c1ccccc1`, -4.35%.
With `COc1ccc(C(=O)C2CCCN(C(=O)c3cccnc3OC)C2)c(C)c1` (centres unmarked) the figure was 23.6%; with `Fc1ccc(CNCCc2c[nH]c3ccccc23)cc1`, -5.83%.
Under `Cc1csc(NC(=O)C2CCN(C(=O)c3ccccc3C)CC2)n1` stands 7.62%.
Take `COc1ccc(NC(=O)CN(C)S(=O)(=O)c2ccc3c(c2)NC(=O)CS3)cc1`: the “hERG current change (%, negative = inhibition) at 10uM” value is listed as -6.66%.
Under `Cc1c(NS(=O)(=O)c2cccc3nsnc23)c(=O)n(-c2ccccc2)n1C` stands 1.11%.
Under `O=C(CC1Sc2ccccc2NC1=O)NCc1ccccc1` (centres unmarked) stands 4.59%.
With `Cc1ccccc1OCc1n[nH]c(=S)n1-c1ccccc1` the figure was 10%; with `COc1ccc(NS(=O)(=O)c2cc(NC(=O)c3ccc(=O)[nH]c3)ccc2N2CCCC2)cc1`, 12.7%; with `COCCn1c(N)c(Sc2ccccc2)c(=O)[nH]c1=O`, 26.7%.
Turning to `COc1ccc(OC)c(C2Nc3c(Cl)ccc(C(=O)O)c3C3C=CCC32)c1` (centres unmarked), the “hERG current change (%, negative = inhibition) at 10uM” value is reported as 2.48%.
Regarding `O=C(Nn1cnnc1)C1CCCN1S(=O)(=O)c1ccc(F)cc1` (centres unmarked), the “hERG current change (%, negative = inhibition) at 10uM” value is reported as 6.05%.
With `Nn1c(SCc2cn3ccsc3n2)nnc1-c1ccncc1`, the “hERG current change (%, negative = inhibition) at 10uM” value was found to be 6.48%.
On to `COCCCNc1nc2nonc2nc1NCCSC`, for which the “hERG current change (%, negative = inhibition) at 10uM” value amounted to 11.3%.
Take `CS(=O)(=O)c1ccc(C(=O)Nc2ccc(N3CCCC3)cc2)c(Cl)c1`: the “hERG current change (%, negative = inhibition) at 10uM” value is on record as 6.23%.
With `C/C(=N/NC(=O)c1ccc(Br)s1)c1ccncc1` the figure was 14.7%; with `Cc1cccc(C)c1Nc1nnc(SCC(=O)Nc2cc(S(=O)(=O)N3CCCCC3)ccc2Cl)s1`, 1.91%; with `Cc1nn(CC(=O)N2CCN(c3cccc(C(F)(F)F)c3)CC2)c(=O)c2cccn12`, -19.6%.
Under `COc1cccc(C(=O)NCC2(c3ccccc3)CCCC2)c1OC` stands 3.79%; under `O=C(Oc1ccccc1)c1ccc2c(c1)C(=O)N(Cc1ccncc1)C2=O`, -24.8%; under `O=C(CSc1nnc(-c2c[nH]c3ccccc23)o1)N1c2ccccc2CCc2ccccc21`, 17.8%.
